Test results from PubChem BioAssay AID1508623 (National Center for Advancing Translational Sciences (NCATS), 2021).
The campaign covered roughly 48,000 compounds. About 450 (0.94%) were called active. Another 19% or so got no clear call; they are omitted. The call rests on the fitted dose curve; in most records, active means well fitted inhibition curve with a large enough effect; inconclusive means small, poorly fitted or top-dose-only effect; inactive means no such curve, though single readings can be large or run the other way. This is one part of the list.

Assay: Primary qHTS for Identification of Small Molecule Inhibitors of Huntingtin Promoter Activity; further: nearly all actives have a fitted effect of over 50% in size
Conditions: HEK293 HTT promoter firefly luciferase reporter (activity 0% = vehicle and -100% = no light), 24 h; series mostly up to 57.5 µM; activity change, negative = inhibition: at the top concentration
Method in brief: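 Luminescence was read after Dual-Glo reagent and a 10 min room-temperature incubation. Values were normalized to vehicle (0% activity) and zero RLU (-100% activity). Reporter HEK293 cells had been exposed to compounds (up to 57.5 uM final) for 24 h.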

Activity change, negative = inhibition, inactive:
CCN(C(=O)CSc1nc2ccccc2nc1Cc1ccccc1OC)c1ccccc1 0.775%
CCCC12CN3CC(CCC)(CN(C1)C3c1c[nH]c3ccc(OC)cc13)C2=O (stereo unspecified) -13.8%
Cc1nc(CC(=O)Nc2ccc(C(N)=O)cc2)cs1 2.24%
CCSC1=NC2(CCN(C(=O)NC3CCCCC3)CC2)N=C1c1ccc(OC)cc1 -33.8%
CCOc1ccccc1CNC(=O)CCc1cn(C)c2ccccc12 -26.3%
CC(=O)Nc1ccc(S(=O)(=O)NC2(C(F)(F)F)C(=O)Nc3c2c(=O)[nH]c(=O)n3-c2ccc(C)cc2)cc1 (stereo unspecified) -10.6% [at 11.5 µM]
CCOCCCNC(=O)C(c1ccc(OC)cc1)N(Cc1cccs1)C(=O)CNC(C)=O (stereo unspecified) -14.3%
CCOC(=O)c1cc2c(=O)n3ccccc3nc2n(CCCOC)c1=NC(=O)c1cc2ccccc2o1 -5.3%
COc1ccc(NC(=O)Cn2c(=O)n(Cc3ccccc3Cl)c(=O)c3cc(OC)c(OC)cc32)cc1 -7.25%
COc1cccc(-n2c(C)nc3c(cnn3-c3ccc(C)c(C)c3)c2=O)c1 -15.2%
O=c1oc2ccc(Cl)cc2cc1-c1nc(-c2cccs2)no1 1.07%
CCOc1cc2[nH]c(=O)n(CCC(=O)N3CCN(c4ccccc4)CC3)c(=O)c2cc1OCC -19%
Cc1ccc(-n2nc3c(N4CCCC(C(=O)NCc5ccccc5C)C4)nnc(C)c3c2C)cc1 (stereo unspecified) -4.66%
Cn1c(=O)n(C)c2cc(CNCc3ccccc3Cl)ccc21 -3.98%
COc1cccc(C(=O)NCc2cn3cccc(C)c3n2)c1 1.78%
CCCn1c(=N)c(C(=O)NC(C)c2ccccc2)cc2c(=O)n3ccccc3nc21 (stereo unspecified) -10.6%
O=C(c1ccc(Cl)cc1)n1nc(-c2ccccc2)nc1NCc1ccco1 19.7%
Cc1ccc2scc(N3CCCC(C)C3)c(=O)c2c1 (stereo unspecified) 20%
CCOc1ccc(NC(=O)c2nn(C)c3c2COc2ccccc2-3)cc1 5.21%
COc1ccc2c(c1)c1c(c(=O)n(-c3cc(Cl)ccc3C)c(=O)n1Cc1ccc(F)cc1)n2C -13.1%
Cc1c(Cl)cccc1-n1ncc(C(=O)NC2CCCC2)c1C1CCN(C(=O)OC(C)(C)C)CC1 -18.6%
Cc1ccc(NC(=O)N2CCN3CCCCC3C2)cc1C (stereo unspecified) 1.62%
C=CC(=O)Nc1cccc(Sc2nc(Nc3ccc(N4CCN(C)CC4)cc3)ncc2Cl)c1 -16.2%
COc1ccccc1C(=O)OCc1cc(=O)n2c(C)csc2n1 58.6%
CCSc1ncc(Cl)c(C(=O)Nc2cc(C)ccc2C)n1 -7.92%
CC(=O)c1c(C)n(-c2cccc(Cl)c2)c2ccc(OC(=O)c3ccccc3)cc12 -6.85%
CCCOC(=O)c1c(-c2ccccc2)c(-c2ccccc2)nn(C)c1=O 27.2%
COc1ccc(-c2[nH]c(-c3ccc(C)cc3)nc2SCC(=O)NCC2CCCO2)cc1 (stereo unspecified) -15.7%
CC1=NS(=O)(=O)c2cc(Cl)ccc2N1 9.13%
COc1cccc(NC(=O)CSc2nc(=O)[nH]c3c2CCCC3)c1 -35.7%
CCOc1ccc(-c2cc3nc(C4CCN(C(=O)OC(C)(C)C)CC4)c(C(=O)Nc4cccc(C(F)(F)F)c4)cn3n2)cc1 -18.3%
c1ccc2c(c1)CCc1ccccc1N2 9.92%
Cc1cc2c(cc1S(=O)(=O)CCC(=O)N1CCN(c3ccccc3)CC1)OCC(=O)N2 -19.1%
CCS(=O)(=O)N1CC(=O)N(c2cc(Cl)ccc2C)C(C)(C(=O)NC2CCCCCC2)C1 (stereo unspecified) 6.71%
CCCCCOC(=O)CSc1nc2sc3c(c2c(=O)n1Cc1ccccc1)CC(C)(CC)OC3 (stereo unspecified) -12.6%
CN1C(=O)C[C@H](C(=O)N[C@@H](Cc2cnc[nH]2)C(=O)N2CCC[C@@H]2C(N)=O)NC1=O 9.02%
COc1cc(Cl)c(NS(=O)(=O)c2cc3[nH]c(=O)c(=O)[nH]c3cc2C)c(OC)c1 5.65%
COc1cccc(C(=O)NC2=NC(c3ccccc3F)CC(=O)N2)c1 (stereo unspecified) -14.3%
Cc1ccc(-n2c(=O)c3c4c(sc3n(CC(=O)C(C)(C)C)c2=O)CCCCC4)cc1C -5.58%
COC1=C(OC)C(=O)C(CC=C(C)CCC=C(C)CCC=C(C)CCC=C(C)CCC=C(C)CCC=C(C)CCC=C(C)CCC=C(C)CCC=C(C)CCC=C(C)C)=C(C)C1=O -5.24%
COC(=O)c1ccc(NC(=O)c2c(-c3ccccc3)c(-c3ccccc3)nn(C)c2=O)cc1 2.24%
CCCN(C(=O)c1cc2c(s1)-c1ccccc1OC2)c1ccc(C(C)C)cc1 -0.889%
Cc1cccc(OC(=O)c2snnc2C)c1C -15.8%
CCc1ccc(Nc2nc(-c3cc4cccc(OC)c4oc3=O)c(CC)s2)cc1 2.38%
Cc1ccc(NC(=O)C2CCC(CNS(=O)(=O)c3cccs3)CC2)cc1C (stereo unspecified) -26.3%
CCOC(=O)C1CCN(C(=O)c2ccc(C)c(NC(=O)c3nsc4ccccc34)c2)CC1 -23.5%
CCC(=O)N1c2ccc(S(=O)(=O)CCC(=O)NCc3ccc(OC)cc3)cc2CC1C (stereo unspecified) -17.2%
CCc1cccc(C)c1Nc1c(-c2cccs2)nc2ncccn12 -20.1%
Cc1cc(C)c(NC(=O)CCN2CCCCC2)c(C)c1 0.466%
O=C(Cn1c(=O)c2ccccc2n(CC(=O)Nc2ccccc2F)c1=O)NCCc1ccccc1 -0.503%
O=C(Nc1ccc(F)c(F)c1)c1ccc(=O)n(Cc2ccc(F)cc2)c1 -25.7%
COc1ccc(NC(=O)COCc2cc(-c3ccco3)on2)cc1Cl -12.1%
CC(C)c1ccc(S(=O)(=O)NCc2nc3cccnc3n2Cc2ccc(F)cc2)cc1 -13%
CC1=C(C(=O)Nc2cc(C)cc(C)c2)C2(CCCCC2)OC1=O -22%
CCc1ccc(-n2c(=O)c3sc4ccccc4c3n(CC(=O)NC3CCCC3)c2=O)cc1 -5.46%
COc1cc(OC)c(NC(=O)CCc2nc(C3=CCN(Cc4cccc(Cl)c4)CC3)no2)cc1Cl 18.2%
Cc1nc2nc(CNC(=O)OC(C)(C)C)nn2c(C)c1CCC(=O)NCc1ccccc1Cl -26.4%
Nc1nc(N)c(S(=O)(=O)c2ccccc2)c(Nc2ccccc2)n1 -14.1%
COc1cccc(C2C(=O)N(C3CCCCC3)CC(=O)N2CCc2ccc(OC)c(OC)c2)c1 (stereo unspecified) -10.8%
COc1ccc(-c2cc(C(=O)Oc3ccc(Br)cc3)c3ccccc3n2)cc1 18.1%
Cc1ccc(NC(=O)c2oc3ccccc3c2NC(=O)C2CCCCC2)cc1 -9.55%
